# Measured values: a collection of fitness landscapes (doi:10.1016/j.celrep.2020.107928)
# Over roughly 81,000 sequences, “one-hybrid fitness for binding NBS DNA” has its median near -0.1; the highest 2% begin near 0.36. Some of the results follow.
# B1: Caulobacter ParB omega fusion; a variant is named by its letters at X, in order, B8GW30 (parent)
# chain: MESVVVGEPGMSEGRRGLGRGLSALLGEVDAAPAQAPGEQLGGSREAPIEILQRNPDQPRRTFREEDLEDLSNSIREKGVLQPILVRPSPDTAGEYQIVAGERAWRAAQRAGLKTVPIMVRELDDLAVLEIGIIENVQRADLNVLEEALSYKVLMEKFERTQENIAQTIGKSXSHVANXMRLLXLPDEVQSYLVSGELTAXHARAIAAAADPVALAKQIIEGGLSVRETEALARKAPNLSAGKSKGGRPPRVKDTDTQALESDLSSVLGLDVSIDHRGSTGTLTITYATLEQLDDLCNRLTRGI
# Variants of: B1
# Assay: one-hybrid fitness for binding NBS DNA (the Noc-binding site; scaled: cognate 1, non-cognate 0); higher = stronger binding
# Settings: with NBS DNA site
# In short: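 The reporter was HIS3, with the binding site 19 bp from the promoter, in E. coli USO used for bacterial one-hybrid selection of Caulobacter ParB libraries with four specificity codons randomised. Growth was on M9 lacking histidine, with 0.1 mM IPTG and 5 mM 3-AT, for 48 hours at 37°C. Illumina sequencing covered plasmids before and after selection; three replicate libraries were pooled and variants with under 10 reads dropped. A fitness score is the log change in variant-to-wild-type read ratio, rescaled to the cognate and non-cognate references.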
row,Variant,one-hybrid fitness for binding NBS DNA
1,GQWI,≤ 0.2
2,SERT,≤ 0.2
3,PCLI,≤ 0.2
4,AVPC,≤ 0.2
5,TKTM,≤ 0.2
6,FNGR,≤ 0.2
7,WNTC,≤ 0.2
8,AALR,≤ 0.2
9,NHWY,≤ 0.2
10,FDRD,≤ 0.2
11,GCGT,≤ 0.2
12,ALMC,≤ 0.2
13,LADT,≤ 0.2
14,RHIA,≤ 0.2
15,SLLC,≤ 0.2
16,CWLV,≤ 0.2
17,PRHY,≤ 0.2
18,PAMY,≤ 0.2
19,LRMS,≤ 0.2
20,FPMR,≤ 0.2
21,DGMC,≤ 0.2
22,RNWL,≤ 0.2
23,LVRD,≤ 0.2
24,ECNM,≤ 0.2

row,Variant,one-hybrid fitness for binding NBS DNA
1,QDSM,≤ 0.2
2,AQQG,≤ 0.2
3,TIVS,≤ 0.2
4,EVVS,≤ 0.2
5,EDYR,≤ 0.2
6,SEQS,≤ 0.2
7,NTDV,≤ 0.2
8,YKRS,≤ 0.2
9,SLAG,≤ 0.2
10,ITFW,≤ 0.2
11,EYAS,≤ 0.2
12,NHFS,≤ 0.2
13,IGEL,≤ 0.2
14,QWKS,≤ 0.2
15,MAPV,≤ 0.2
16,RRCL,≤ 0.2
17,TPQC,≤ 0.2
18,LERY,≤ 0.2
19,HLTS,≤ 0.2
20,ATRE,≤ 0.2
21,QVHC,≤ 0.2
22,IHPL,≤ 0.2
23,TPHF,≤ 0.2
24,KQTL,≤ 0.2

row,Variant,one-hybrid fitness for binding NBS DNA
1,TPNS,≤ 0.2
2,RNGV,≤ 0.2
3,GETT,≤ 0.2
4,QTNA,0.505
5,VESH,≤ 0.2
6,DTHS,≤ 0.2
7,YMMN,≤ 0.2
8,FRCG,≤ 0.2
9,CKMR,≤ 0.2
10,ESMS,≤ 0.2
11,TEDS,≤ 0.2
12,KLRT,0.211
13,QDTP,≤ 0.2
14,DRYA,≤ 0.2
15,HSCR,≤ 0.2
16,YTFG,≤ 0.2
17,RHPN,≤ 0.2
18,NYHG,≤ 0.2
19,LLYC,≤ 0.2
20,FEKR,≤ 0.2
21,QYNT,0.488
22,WRWP,≤ 0.2
23,QANW,≤ 0.2
24,DTAL,≤ 0.2

row,Variant,one-hybrid fitness for binding NBS DNA
1,GTAW,≤ 0.2
2,FMWG,≤ 0.2
3,HYQF,≤ 0.2
4,FQIR,≤ 0.2
5,ERLA,≤ 0.2
6,HDKS,≤ 0.2
7,LTSM,≤ 0.2
8,HFKG,≤ 0.2
9,CHTV,≤ 0.2
10,HLQC,≤ 0.2
11,FTAG,≤ 0.2
12,SYSH,≤ 0.2
13,MMWG,≤ 0.2
14,TSSL,≤ 0.2
15,PFKT,≤ 0.2
16,SARF,≤ 0.2
17,ITQW,≤ 0.2
18,SLNA,≤ 0.2
19,PQIG,≤ 0.2
20,TRCP,≤ 0.2
21,TYSM,≤ 0.2
22,KWVI,≤ 0.2
23,REFS,≤ 0.2
24,VNTY,≤ 0.2

row,Variant,one-hybrid fitness for binding NBS DNA
1,TVRE,≤ 0.2
2,RHYE,≤ 0.2
3,CSNT,≤ 0.2
4,AKTV,≤ 0.2
5,MVSM,≤ 0.2
6,EAKY,≤ 0.2
7,AEIN,≤ 0.2
8,IGNT,≤ 0.2
9,AMRI,≤ 0.2
10,NEAG,≤ 0.2
11,AVYA,≤ 0.2
12,HCFS,≤ 0.2
13,RLVY,≤ 0.2
14,EQLA,≤ 0.2
15,HNTT,≤ 0.2
16,FDRT,≤ 0.2
17,LKPP,≤ 0.2
18,NRAG,≤ 0.2
19,RESD,≤ 0.2
20,YPHG,≤ 0.2
21,AMPR,≤ 0.2
22,HRQD,≤ 0.2
23,TSKR,0.271
24,FLAG,≤ 0.2

row,Variant,one-hybrid fitness for binding NBS DNA
1,NPMK,≤ 0.2
2,PRPE,≤ 0.2
3,QDNA,≤ 0.2
4,RACR,0.379
5,WDCC,≤ 0.2
6,HFWS,≤ 0.2
7,GHDS,≤ 0.2
8,MRHV,≤ 0.2
9,GSTC,≤ 0.2
10,AVVN,≤ 0.2
11,REFT,≤ 0.2
12,TMMI,≤ 0.2
13,KMRY,≤ 0.2
14,ATLM,≤ 0.2
15,VDLM,≤ 0.2
16,ITYS,≤ 0.2
17,LHQS,≤ 0.2
18,QAGK,≤ 0.2
19,HPQS,≤ 0.2
20,HDLS,≤ 0.2
21,CNNC,≤ 0.2
22,HESR,≤ 0.2
23,QPAL,≤ 0.2
24,KAER,≤ 0.2

row,Variant,one-hybrid fitness for binding NBS DNA
1,ALAS,≤ 0.2
2,TKLT,≤ 0.2
3,SCQC,≤ 0.2
4,GQQG,≤ 0.2
5,RKVC,≤ 0.2
6,HSSP,≤ 0.2
7,AKQD,≤ 0.2
8,QYKP,0.232
9,LRLT,≤ 0.2
10,IAQM,≤ 0.2
11,GRTF,≤ 0.2
12,RVNS,0.521
13,QCLA,0.304
14,ISSG,≤ 0.2
15,ARMC,≤ 0.2
16,RLTM,≤ 0.2
17,NNKY,≤ 0.2
18,RHFG,≤ 0.2
19,WGYF,≤ 0.2
20,GAQF,≤ 0.2
21,EMYG,≤ 0.2
22,SMNG,≤ 0.2
23,RQCR,0.394
24,WMKR,0.226

row,Variant,one-hybrid fitness for binding NBS DNA
1,DEIG,≤ 0.2
2,VKDC,≤ 0.2
3,RCFR,0.376
4,DNNC,≤ 0.2
5,YSIF,≤ 0.2
6,GKWS,≤ 0.2
7,RLNF,≤ 0.2
8,RERE,≤ 0.2
9,LYSI,≤ 0.2
10,QNLI,≤ 0.2
11,RSAV,≤ 0.2
12,IPAP,≤ 0.2
13,PTCV,≤ 0.2
14,HMSK,≤ 0.2
15,PDSF,≤ 0.2
16,ARGL,≤ 0.2
17,PLSR,≤ 0.2
18,HGAR,≤ 0.2
19,AHKH,≤ 0.2
20,WGIH,≤ 0.2
21,NRKI,≤ 0.2
22,EELR,≤ 0.2
23,MQYT,≤ 0.2
24,ATIS,≤ 0.2

row,Variant,one-hybrid fitness for binding NBS DNA
1,DHRC,≤ 0.2
2,YFRD,≤ 0.2
3,VYNR,≤ 0.2
4,AYWR,≤ 0.2
5,SNGC,≤ 0.2
6,PAYT,≤ 0.2
7,FGYW,≤ 0.2
8,NQHI,≤ 0.2
9,TYQR,≤ 0.2
10,VQNE,≤ 0.2
11,SGEK,≤ 0.2
12,ETRV,≤ 0.2
13,TLRR,≤ 0.2
14,RQAV,≤ 0.2
15,HPLI,≤ 0.2
16,NDVY,≤ 0.2
17,NHKP,≤ 0.2
18,WASL,≤ 0.2
19,AQQC,≤ 0.2
20,QPAE,≤ 0.2
21,VPYA,≤ 0.2
22,WPRR,≤ 0.2
23,VTET,≤ 0.2
24,PFTG,≤ 0.2

row,Variant,one-hybrid fitness for binding NBS DNA
1,PSRI,≤ 0.2
2,IRKG,≤ 0.2
3,RLEM,≤ 0.2
4,TKQC,≤ 0.2
5,GNKS,≤ 0.2
6,TTYL,≤ 0.2
7,RKWN,≤ 0.2
8,TLGM,≤ 0.2
9,SCPH,≤ 0.2
10,EMAL,≤ 0.2
11,PDYF,≤ 0.2
12,HTSG,≤ 0.2
13,TCDG,≤ 0.2
14,QSWH,≤ 0.2
15,WSQL,≤ 0.2
16,PRVC,≤ 0.2
17,PTNM,≤ 0.2
18,RVGM,≤ 0.2
19,PVVR,≤ 0.2
20,RASW,≤ 0.2
21,RMNG,≤ 0.2
22,TSSY,≤ 0.2
23,KDPR,≤ 0.2
24,EGPA,≤ 0.2

row,Variant,one-hybrid fitness for binding NBS DNA
1,RQPR,≤ 0.2
2,ASSS,≤ 0.2
3,HDSY,≤ 0.2
4,LWAA,≤ 0.2
5,DCCR,≤ 0.2
6,NGTR,≤ 0.2
7,DASN,≤ 0.2
8,LMLY,≤ 0.2
9,LAML,≤ 0.2
10,NCTS,≤ 0.2
11,DAVY,≤ 0.2
12,SMAC,≤ 0.2
13,TTDG,≤ 0.2
14,FGIT,≤ 0.2
15,WFPC,≤ 0.2
16,RTRA,0.446
17,PPWS,≤ 0.2
18,QPNS,≤ 0.2
19,STQS,≤ 0.2
20,RLMQ,≤ 0.2
21,ELQY,≤ 0.2
22,NTRN,≤ 0.2
23,DTMI,≤ 0.2
24,QPKK,≤ 0.2

row,Variant,one-hybrid fitness for binding NBS DNA
1,AEAC,≤ 0.2
2,PCED,≤ 0.2
3,KDPW,≤ 0.2
4,SGIT,≤ 0.2
5,SSMF,≤ 0.2
6,RDDV,≤ 0.2
7,RCIT,0.289
8,TDHC,≤ 0.2
9,RPRS,≤ 0.2
10,KWAG,≤ 0.2
11,RKAM,≤ 0.2
12,TSTL,≤ 0.2
13,ALEN,≤ 0.2
14,WYCE,≤ 0.2
15,STLI,≤ 0.2
16,YKRT,≤ 0.2
17,HHHC,≤ 0.2
18,LFRM,≤ 0.2
19,MADP,≤ 0.2
20,NIWV,≤ 0.2
21,ILLC,≤ 0.2
22,QKPN,≤ 0.2
23,HRKC,≤ 0.2
24,CHEL,≤ 0.2

row,Variant,one-hybrid fitness for binding NBS DNA
1,KQVR,≤ 0.2
2,RIPQ,≤ 0.2
3,DKVG,≤ 0.2
4,YVPC,≤ 0.2
5,VKAG,≤ 0.2
6,SFCD,≤ 0.2
7,TPPV,≤ 0.2
8,IATF,≤ 0.2
9,SYPE,≤ 0.2
10,NMAS,≤ 0.2
11,CGMR,≤ 0.2
12,DLNP,≤ 0.2
13,KMNK,≤ 0.2
14,PCRV,≤ 0.2
15,TIPR,≤ 0.2
16,RYRW,≤ 0.2
17,RRWC,0.393
18,SEDV,≤ 0.2
